# Data reported in patent US20240425575A1 (SOTER BIOPHARMA PTE, published 2024).
# T1: human ANG2 protein (623-AN-025/CF, R&D) (human, UniProt O15123 19-496, limits assumed)
# T1 sequence (looked up): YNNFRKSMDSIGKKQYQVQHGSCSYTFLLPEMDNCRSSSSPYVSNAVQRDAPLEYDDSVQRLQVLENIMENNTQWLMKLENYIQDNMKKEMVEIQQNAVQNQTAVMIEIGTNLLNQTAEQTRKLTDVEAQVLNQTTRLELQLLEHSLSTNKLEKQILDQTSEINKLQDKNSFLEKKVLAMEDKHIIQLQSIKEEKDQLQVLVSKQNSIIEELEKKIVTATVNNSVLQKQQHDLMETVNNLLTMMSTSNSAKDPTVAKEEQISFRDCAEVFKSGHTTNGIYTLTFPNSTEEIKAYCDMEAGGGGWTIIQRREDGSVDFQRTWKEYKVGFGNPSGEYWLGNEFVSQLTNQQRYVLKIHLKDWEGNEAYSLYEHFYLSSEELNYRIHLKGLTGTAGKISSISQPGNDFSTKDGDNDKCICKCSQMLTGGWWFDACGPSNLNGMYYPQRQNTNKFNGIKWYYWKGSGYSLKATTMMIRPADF
# Key:
# [1] = target: T1, human ANG2 protein (623-AN-025/CF, R&D); assay: cell-based or functional assay
# [2] = target: T1, human ANG2 protein (623-AN-025/CF, R&D); assay: flow cytometry, inhibition of human ANG2 (10 µg/mL) binding to HUVEC cells
# Method: HUVEC cells (H-003, Allcells) in a good growth state were prepared into a single cell suspension. After cell counting, the cells were plated in a 96-well plate in 10⁵ cells/well. A final concentration of the human ANG2 protein (623-AN-025/CF, R&D) was 10 μg/mL, which was constant. The antibodies to be detected were added to each well according to an experimental design, respectively. The highest concentration of the antibodies was 1000 nM, the antibodies were subjected to 5-fold dilution in sequence and 7 concentration gradients were set in total, and meanwhile, a blank control and a positive control RG7716 (ATAD00534, Atagenix) were set. After the cells were incubated for 30 min at room temperature, cells in each well were washed three times and resuspended, and fluorescence-labeled secondary antibodies PE anti-His (362603, Biolegend) were added and incubated in darkness for 30 min at room temperature. The cells in each well were washed three times, resuspended and loaded on a flow cytometer for detection.
# [3] = target: T1, human ANG2 protein (623-AN-025/CF, R&D); assay: SPR (Biacore T200), antibody captured on Protein A chip, human ANG2 as analyte, 1:1 fit
# Method: The test antibodies were captured by using a Sensor Chip ProteinA chip (GE, Cat. No. 28995056), and the antigen human ANG2 protein (623-AN-025/CF, R&D) was used as an analyte to detect kinetics and affinity data obtained after the antigen human ANG2 protein bound to the test samples. An initial concentration of the detection of the binding of the antigen to the test samples was 10 nM. […] The antigen was injected from the low concentration to the high concentration in sequence. One negative control (1×HBS-EP+buffer) and one repeated concentration (generally, the lowest concentration was repeated) were set. Before the injection, a flushing process of Start up (1×HBS-EP+buffer) was performed at least three times to balance the system. Binding and dissociation trends of the antigen and the test samples were detected. After the dissociation was completed, a regenerating agent was injected to regenerate the chip. After the chip regeneration was completed, the next concentration was detected. After the detection was completed, a data fitting experiment was performed through a 1:1 Binding fitting manner in data analysis software (Biacore T200 Evaluation Software).
IC50 of inhibition of AKT phosphorylation of human ANG2-dependent HUVEC cells [1],IC50 [2],Kd [3],koff [3],kon [3],Binder
1.26 nM,19.4 nM,0.545 nM,0.000622 s⁻¹,1.14e+06 M⁻¹ s⁻¹,"Y400C (bispecific antibody, human IgG1, kappa, Anti-VEGF IgG with the anti-ANG2 VHH at the C-terminus of each heavy chain: (VH)-(CH1)-(hinge)-(Fc)-(linker)-(VHH); also called bispecific antibody Y400C; diabody molecule Y400C) heavy: EVQLVESGGGLVQPGGSLRLSCAASGYDFTHYGMNWVRQAPGKGLEWVGWINTYTGEPTYAADFKRRFTFSLDTSKSTAYLQMNSLRAEDTAVYYCAKYPYYYGTSHWYFDVWGQGTLVTVSS[human IgG1 constant region left out]GGGSEVQLVESGGGLVQPGESLRLSCVASGFPSGFTFSDYQMYWYRQAPGKERELVAIISNDGLRKTYADSVKGRFTISRDNAKNTMFLQMNSLKPEDTAVYVCNVRRANRDDWGQGTQVTVSS light: DIQLTQSPSSLSASVGDRVTITCSASQDISNYLNWYQQKPGKAPKVLIYFTSSLHSGVPSRFSGSGSGTDFTLTISSLQPEDFATYYCQQYSTVPWTFGQGTKVEIKRTVAAPSVFIFPPSDEQLKSGTASVVCLLNNFYPREAKVQWKVDNALQSGNSQESVTEQDSKDSTYSLSSTLTLSKADYEKHKVYACEVTHQGLSSPVTKSFNRGEC"
2.27 nM,30.3 nM,0.453 nM,0.000873 s⁻¹,1.93e+06 M⁻¹ s⁻¹,"Y400E (bispecific antibody, human IgG1, kappa, Anti-VEGF IgG with the anti-ANG2 VHH at the C-terminus of each heavy chain: (VH)-(CH1)-(hinge)-(Fc)-(linker)-(VHH); also called bispecific antibody Y400E; diabody molecule Y400E) heavy: EVQLVESGGGLVQPGGSLRLSCAASGYDFTHYGMNWVRQAPGKGLEWVGWINTYTGEPTYAADFKRRFTFSLDTSKSTAYLQMNSLRAEDTAVYYCAKYPYYYGTSHWYFDVWGQGTLVTVSS[human IgG1 constant region left out]GGGSGGGGSGGGGSEVQLVESGGGLVQPGESLRLSCVASGFPSGFTFSDYQMYWYRQAPGKERELVAIISNDGLRKTYADSVKGRFTISRDNAKNTMFLQMNSLKPEDTAVYVCNVRRANRDDWGQGTQVTVSS light: DIQLTQSPSSLSASVGDRVTITCSASQDISNYLNWYQQKPGKAPKVLIYFTSSLHSGVPSRFSGSGSGTDFTLTISSLQPEDFATYYCQQYSTVPWTFGQGTKVEIKRTVAAPSVFIFPPSDEQLKSGTASVVCLLNNFYPREAKVQWKVDNALQSGNSQESVTEQDSKDSTYSLSSTLTLSKADYEKHKVYACEVTHQGLSSPVTKSFNRGEC"
